In PMC4336329 (PLoS ONE, 2015):
Out of some 310,000 compounds screened, about 14,000 (4.5%) showed an effect of 50% or more. The effect is printed as a negative number. Some of the results follow.

Target: human ether-à-go-go-related gene (hERG) potassium channel (human, UniProt Q12809)
Assay: primary screen, population patch clamp on CHO cells stably expressing hERG
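Also: peak tail current of the secondary pulse compared with the same well before compound.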

Sequence of human ether-à-go-go-related gene (hERG) potassium channel (Q12809 whole entry, looked up): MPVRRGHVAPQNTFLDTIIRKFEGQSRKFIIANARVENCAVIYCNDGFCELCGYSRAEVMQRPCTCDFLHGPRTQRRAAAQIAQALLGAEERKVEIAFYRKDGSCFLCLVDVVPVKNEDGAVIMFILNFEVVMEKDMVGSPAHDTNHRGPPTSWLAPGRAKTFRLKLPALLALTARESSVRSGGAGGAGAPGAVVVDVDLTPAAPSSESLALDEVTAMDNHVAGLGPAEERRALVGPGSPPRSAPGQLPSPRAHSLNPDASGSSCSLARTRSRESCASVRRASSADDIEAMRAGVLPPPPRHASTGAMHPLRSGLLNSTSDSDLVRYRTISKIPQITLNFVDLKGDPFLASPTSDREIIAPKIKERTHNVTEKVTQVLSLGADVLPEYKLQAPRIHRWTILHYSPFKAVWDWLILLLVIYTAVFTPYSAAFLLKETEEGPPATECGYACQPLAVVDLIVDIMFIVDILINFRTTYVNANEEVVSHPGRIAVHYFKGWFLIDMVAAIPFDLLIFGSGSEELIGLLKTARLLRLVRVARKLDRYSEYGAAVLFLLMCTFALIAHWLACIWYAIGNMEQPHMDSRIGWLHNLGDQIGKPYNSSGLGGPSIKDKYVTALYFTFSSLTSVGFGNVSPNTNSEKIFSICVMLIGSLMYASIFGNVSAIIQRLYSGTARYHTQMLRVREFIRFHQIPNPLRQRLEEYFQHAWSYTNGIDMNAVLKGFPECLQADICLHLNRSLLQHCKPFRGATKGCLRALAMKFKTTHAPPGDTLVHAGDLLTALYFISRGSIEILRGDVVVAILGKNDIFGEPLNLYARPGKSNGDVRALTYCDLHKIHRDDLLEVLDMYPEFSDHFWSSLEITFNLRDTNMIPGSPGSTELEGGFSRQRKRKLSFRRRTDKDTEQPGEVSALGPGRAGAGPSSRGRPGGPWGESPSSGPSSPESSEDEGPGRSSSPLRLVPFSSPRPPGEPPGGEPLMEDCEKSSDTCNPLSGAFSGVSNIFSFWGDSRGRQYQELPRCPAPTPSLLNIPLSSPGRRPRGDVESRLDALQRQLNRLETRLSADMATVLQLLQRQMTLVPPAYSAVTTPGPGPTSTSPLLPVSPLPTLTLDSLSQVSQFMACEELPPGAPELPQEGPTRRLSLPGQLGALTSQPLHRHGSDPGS

| SMILES | hERG current change (%, negative = inhibition) at 10uM |
| --- | --- |
| CC(C)Cn1c(=O)c2c(nc3n2CCCN3Cc2ccccc2)n(C)c1=O | -50% |
| Brc1ccc(C2CC(c3ccccc3)=Nc3ccccc3N2)cc1 (stereo not shown) | 13.6% |
| O=C(Nc1cccnc1)c1cccc(S(=O)(=O)N2CCCCC2)c1 | 5.67% |
| NC(=O)C1CCN(CC(=O)Nc2nccs2)CC1 | 10.9% |
| Cc1nc(Cc2ccc(OC(C)C)cc2)[nH]c(=O)c1CC(=O)O | 11% |
| [O-]/[N+](=C\c1ccncc1)c1ccccc1 | -3.2% |
| Cn1cnnc1SCc1ccc(C(=O)N/N=C(\CCC(=O)O)c2ccc(C(C)(C)C)cc2)cc1 | -13.3% |
| O=C1CCc2cc(S(=O)(=O)N3CCC(C(=O)Nc4nccs4)CC3)ccc2N1 | 4.1% |
| CC(C)CNC(=O)c1c(F)c(F)c(F)c(F)c1F | 10.7% |
| Oc1c(Cl)c(Cl)c(Cl)c(Cl)c1Cl | 31.2% |
| CCN1CCCC1CNC(=O)CSc1cc(=O)n(CC)c2ccccc12 (stereo not shown) | -5.04% |
| COc1ccc(N2CCN(c3ncnc4nc[nH]c34)CC2)cc1 | 11% |
| CCCCC(=O)N(Cc1ccc(F)cc1)C1CCS(=O)(=O)C1 (stereo not shown) | -8.15% |
| COC(=O)c1ccccc1COn1c(=O)c(C)[n+]([O-])c2ccccc21 | 5.48% |
| CC1CCN(S(=O)(=O)c2ccc3c(c2)N(CC(=O)NCCCN2C(C)CCCC2C)C(=O)CO3)CC1 (stereo not shown) | 17.3% |
| CC(C)(CNC(=O)c1cccs1)N1CCOCC1 | -15.4% |
| Cc1ccc2nc(N3CCN(C(=O)c4ccco4)CC3)sc2c1 | -32% |
| CN(CCCC(=O)NCCc1ccccc1)S(=O)(=O)c1ccc([N+](=O)[O-])cc1 | -37.6% |
| CCOC(=O)C1(CCOc2ccccc2)CCN(Cc2ccccc2OC)CC1 | -71.4% |
| COc1ccc(Cl)cc1N/C(N)=N/c1nc(C)cc(=O)[nH]1 | 20% |
| CCOc1cc(C(=O)Nc2cnccn2)cc(OCC)c1OCC | -8.85% |
| S=c1[nH]nc(COc2ccccc2)n1/N=C/c1cccs1 | 0.38% |

| SMILES | hERG current change (%, negative = inhibition) at 10uM |
| --- | --- |
| CC(C(=O)Nc1ccc2c(c1)OCCO2)c1ccc([N+](=O)[O-])cc1 (stereo not shown) | 1.87% |
| CCc1ccc(N2C(=O)CC(N3CCN(c4ccccn4)CC3)C2=O)cc1 (stereo not shown) | -6.78% |
| Cc1cc(=O)oc2cc(NC(=O)C3CCCC3)ccc12 | 10% |
| O=C(/C=C\NCC(=O)c1ccccc1)c1ccc(F)cc1 | -6.81% |
| CCNC(=S)N(CCc1c(C)[nH]c2ccc(OC)cc12)Cc1cccnc1 | -2.22% |
| Cc1ccc(S(=O)(=O)N(C)CC(=O)Nc2cc(C)ccn2)cc1 | -10.9% |
| CCC(C)C(=O)Nc1nc2ccc(S(C)(=O)=O)cc2s1 (stereo not shown) | 8.05% |
| Cc1ccc(S(=O)(=O)NCc2cc(=O)n(C)c(=O)n2C)cc1C | 23.2% |
| CCCCOC(=O)Cn1c(=O)c2c(nc3n2CCCCN3c2ccc(C)cc2)n(C)c1=O | -52.8% |
| Cc1ccc(NC(=O)Cc2nnc(SCC(=O)NC3CCCC3)n2C)cc1C | 2.33% |
| Cl.OC(CN1CCN(c2cccc(Cl)c2)CC1)C(c1ccccc1)c1ccccc1 (stereo not shown) | -15.2% |
| Cc1ccc2nc(NC(=O)CSc3nc4ccccc4o3)sc2c1 | 14.4% |
| COc1ccc(N2CCN(C(=O)C(=O)c3c(C)n(C)c4ccccc34)CC2)cc1 | 10.4% |
| Cc1sc2ncnc(Sc3nnnn3-c3ccc(Cl)cc3)c2c1C | 11.2% |
| CCO[C@@H]1OC(C(=O)N2CCN(Cc3ccccc3)CC2)=C[C@H](C)[C@H]1CCCO | 3.35% |
| CCC(CO)(CO)N(CC(=O)Nc1ccc(OC)cc1)CC(=O)Nc1ccc(OC)cc1 | 17% |
| CNC(=O)C1CCN(S(=O)(=O)c2c(C)noc2/C=C/c2cccc(OC)c2)CC1 | -2.01% |
| COc1ccc(C(=O)Nc2ccccc2C(=O)N2CCCCC2C)cc1 (stereo not shown) | 1.6% |
| CCN(CC(=O)Nc1ccccc1C(F)(F)F)C(=O)c1cc(-c2cccs2)nn1-c1ccccc1 | -1.42% |
| Cc1ccc(OCC(=O)NNC(=O)CCc2ccccc2)cc1 | 2.22% |
| O=[N+]([O-])c1cccc(-c2nnc(-c3ccc4c(c3)OCO4)o2)c1 | -2.42% |
| Fc1ccc(Nc2nnns2)cc1 | 18.2% |

| SMILES | hERG current change (%, negative = inhibition) at 10uM |
| --- | --- |
| Cc1cc(C)nc(N/N=C/c2ccccc2OCC(=O)O)n1 | 16.3% |
| O=C(O)c1ccc(NC(CSCc2ccccc2F)C(=O)O)c([N+](=O)[O-])c1 (stereo not shown) | 5.64% |
| Cl.O=C(CCS(=O)(=O)c1ccccc1)N(CCCN1CCOCC1)c1nc2ccc(F)cc2s1 | -28% |
| Cc1ccccc1OCCC(=O)OCC(=O)N(C)c1c(N)n(Cc2ccccc2)c(=O)[nH]c1=O | 8.18% |
| CCCN(CCC)CCCNC(=O)c1cc2cc3ccc(OC)cc3nc2o1 | -52.8% |
| COc1ccc(-c2cc(-c3ccco3)[nH]c(=O)c2C#N)cc1OC | 3.6% |
| O=C(CSc1nnc(-c2ccc(Br)cc2)n1CCc1ccccc1)NC1CCS(=O)(=O)C1 (stereo not shown) | -86.8% |
| O=C(O)CN1C(=O)SC(Nc2ccccc2)C1=O (stereo not shown) | -7.83% |
| COc1ccc2oc(C(=O)OC(C)C(=O)NCc3ccccc3)c(C)c2c1 (stereo not shown) | 5.77% |
| O=C(NCCC1=CCCCC1)C(=O)NCc1ccncc1 | 7.85% |
| O=C(CSc1ccc(-c2ccccn2)nn1)NCc1ccc(F)cc1 | -17.2% |
| COc1ccc(N(CC(=O)Nc2cc(OC)ccc2OC)S(C)(=O)=O)cc1 | -15.1% |
| Cc1ccc(C2=NS(=O)(=O)N(C)C(C(=O)N3CCCCC3)=C2)cc1 | -19.2% |
| N#Cc1nc(-c2ccco2)oc1N1CCC(C(N)=O)CC1 | -5.43% |
| Cc1c(C(=O)N2CCOCC2)c(S(=O)(=O)Nc2cccc(F)c2)c(C)n1C | 3.02% |
| COCCSc1nnc(NC(=O)Cc2cccs2)s1 | 6.61% |
| COc1cc(Br)cc(CNc2ccc(F)c([N+](=O)[O-])c2)c1O | 5.85% |
| CCOc1ccc(NC(=O)Cn2nnc(-c3ccccc3NC(=O)CC)n2)cc1 | -1.33% |
| COC(=O)N1c2ccccc2C=Cc2ccccc21 | 17.5% |
| CCCSc1nnc(-c2c[nH]c3ccccc23)n1CC | -11.6% |
| CCOc1ccccc1Oc1ccc(C(F)(F)F)cn1 | 13.3% |
| O=c1[nH]c(C2CCN(S(=O)(=O)c3ccc4c(c3)OCCO4)CC2)nc2c1nnn2Cc1c(F)cccc1Cl | 5.79% |

| SMILES | hERG current change (%, negative = inhibition) at 10uM |
| --- | --- |
| COc1ccc2nc(SCC(=O)Nc3ccccc3C)[nH]c2c1 | -9.44% |
| O=S1(=O)C=C(SCc2ccc(Cl)c(Cl)c2)Nc2ccccc21 | -14.5% |
| COc1ccc(CC(C)CC(=O)Nc2ccc(OC)cc2)cc1 (stereo not shown) | 9.05% |
| COc1ccc(-c2[nH]c(-c3ccc(C(=O)O)cc3)nc2-c2ccccc2)cc1 | 5.89% |
| O=C(NCC(c1cccs1)N1CCOCC1)c1cc(S(=O)(=O)N2CCOCC2)ccc1F (stereo not shown) | -25.4% |
| C/C=C/c1cc(OC)c2c(c1)[C@H](C)[C@@H](c1ccc(O)c(OC)c1)O2 | 15.9% |
| COc1ccccc1C(=O)CC(=O)c1ccccc1 | 15.2% |
| O=C(NC(Cc1ccccc1)C(=O)O)/C(=C/c1ccc(Cl)cc1)NC(=O)c1ccccc1 (stereo not shown) | 13.2% |
| Cc1cccc(-c2nnn3c2nc(NCCc2ccc(S(N)(=O)=O)cc2)c2ccccc23)c1 | 23.3% |
| O=C(O)CC(NC(=O)OCc1ccccc1)c1ccc(Br)cc1 (stereo not shown) | 20.2% |
| CN(N)c1nc(-c2ccccc2)nnc1C(F)(F)F | 9.96% |
| COC(CSc1nc(N)c2c3c(sc2n1)CN(C)CC3)OC | 5.88% |
| Cc1ccc(CNC(=O)C23CN(Cc4ccccc4)CC2C(c2cccc([N+](=O)[O-])c2)=NO3)cc1 (stereo not shown) | -0.125% |
| O=C(Nc1nncs1)c1cccc(S(=O)(=O)N2CCCCC2)c1 | -15.7% |
| COc1ccc(NC(=O)COC(=O)c2ccncc2)c(OC)c1 | -5.88% |
| Cc1ccc(C(c2sc3nc(C)nn3c2O)N2CCN(c3ccccc3F)CC2)cc1 (stereo not shown) | -37.4% |
| O=C(c1ccco1)N1CCN(C(=O)C(Cc2ccccc2)NS(=O)(=O)c2cccs2)CC1 (stereo not shown) | -28.3% |
| Cc1cccc(C(=O)NNC(=O)C2CCN(C(=O)OC(C)(C)C)CC2)c1 | 12.2% |
| O=C(Nc1ccccc1F)c1ccc(Cn2cc(Br)cn2)cc1 | -4.78% |
| Cc1nn(C(C)C(=O)NNC(=S)Nc2ccc(F)cc2)c(C)c1[N+](=O)[O-] (stereo not shown) | 13.4% |
| Cc1nn(Cc2ccccc2)c(C)c1C(=O)OCC(=O)NC1CCS(=O)(=O)C1 (stereo not shown) | 0.704% |
| CCC1(c2ccc(F)cc2)NC(=O)N(CC(=O)Nc2ccc(N3CCCCC3)cc2)C1=O (stereo not shown) | -15.4% |
